# Experimental data reported in PubChem BioAssay (NCATS).
# Several values for one entry are separate records, joined by “and”; a condition that tells them apart may be missing. Equal entries are not always repeated. Inconclusive results, whose numbers are uncertain, are shown with a selection of clear calls. No potency is given beside an inconclusive call; the fits are too rough. Where a structure was tested more than once in an assay, its records may differ in their call. Activity calls are given as the source filed them. Calls follow the shape of the dose curve; as a rule, active = well fitted inhibition curve with a large enough effect; inconclusive = small, poorly fitted or top-dose-only effect; inactive = no such curve, though single readings can be large or run the other way.
# Biological target: Rap guanine nucleotide exchange factor 3 (Homo sapiens) (UniProt O95398)
# Assay: Confirmatory qHTS for antagonist of cAMP-regulated guanine nucleotide exchange factor 3 (EPAC1) (AID 1645880); also: nearly all actives have a fitted effect of over 55% in size;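 as to activity, negative = inhibition: plate controls were DMSO only for no effect and full effect of the ATA control for full effect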
# Conditions: EPAC1 Rap1B-BODIPY-GDP exchange, fluorescence; series mostly up to 115 µM; activity, negative = inhibition: at the top concentration
# How it was run: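 Nucleotide exchange uses 100 nM EPAC1, 250 nM RAP1B-BODIPY-GDP and 50 uM GDP, with compounds in a concentration-titration series. After 5 min at room temperature, fluorescence (480 nm ex/540 nm em) is read every 5 min for 30 min. Data are normalized to control ATA and DMSO.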
# Potency is read from the fitted curve at half-maximal effect; tags tell the direction and shape of the fitted curve.
# Sequence of UniProt O95398 (O95398 whole entry, looked up): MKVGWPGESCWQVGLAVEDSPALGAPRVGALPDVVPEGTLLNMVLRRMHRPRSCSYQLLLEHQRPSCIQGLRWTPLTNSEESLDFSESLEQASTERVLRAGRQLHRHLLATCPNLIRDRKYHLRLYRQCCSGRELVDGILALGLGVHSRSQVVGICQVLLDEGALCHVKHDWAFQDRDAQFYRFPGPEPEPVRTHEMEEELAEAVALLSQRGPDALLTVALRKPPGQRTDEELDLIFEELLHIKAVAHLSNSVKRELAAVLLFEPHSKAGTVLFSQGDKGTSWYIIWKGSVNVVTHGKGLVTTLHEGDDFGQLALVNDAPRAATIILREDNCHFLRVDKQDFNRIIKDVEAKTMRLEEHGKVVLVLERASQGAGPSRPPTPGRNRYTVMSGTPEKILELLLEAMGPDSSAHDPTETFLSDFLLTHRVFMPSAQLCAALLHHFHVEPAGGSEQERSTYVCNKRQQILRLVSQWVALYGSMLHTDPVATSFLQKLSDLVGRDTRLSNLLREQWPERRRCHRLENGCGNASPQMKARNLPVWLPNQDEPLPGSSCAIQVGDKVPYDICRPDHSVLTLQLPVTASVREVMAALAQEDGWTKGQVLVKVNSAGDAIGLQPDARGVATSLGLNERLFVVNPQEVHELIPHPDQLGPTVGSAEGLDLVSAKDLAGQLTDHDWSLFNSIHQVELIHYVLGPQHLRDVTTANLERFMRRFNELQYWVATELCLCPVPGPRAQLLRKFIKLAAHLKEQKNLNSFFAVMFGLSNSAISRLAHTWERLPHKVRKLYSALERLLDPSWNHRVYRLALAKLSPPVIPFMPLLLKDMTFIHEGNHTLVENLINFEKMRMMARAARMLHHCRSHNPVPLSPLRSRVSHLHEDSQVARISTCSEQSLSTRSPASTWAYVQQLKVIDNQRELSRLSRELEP
SMILES,"activity, negative = inhibition",Potency
O=C(O)c1cc([N+](=O)[O-])ccc1NCCCc1ccccc1,inactive: 8.59%,–
C[C@@]1(C2CCCC2)Cc2cc(OCC(=O)O)c(Cl)c(Cl)c2C1=O,inactive: -15%,–
Cc1ccc(O)c(N=Nc2ccccc2)n1,–,"inconclusive [inhibitor, partial curve, poor fit]"
CC(C)c1ccc2c(c1)c(SC(C)(C)C)c(CC(C)(C)C(=O)O)n2Cc1ccc(Cl)cc1,–,inactive and active: 30.1 µM and active: 35.2 µM
O=C1C(SCCO)=C(SCCO)C(=O)c2ccccc21,–,"inconclusive [inhibitor, partial curve]"

# Biological target: Rap guanine nucleotide exchange factor 4 (Homo sapiens) (UniProt Q8WZA2)
# Assay: Confirmatory qHTS for antagonist of cAMP-regulated guanine nucleotide exchange factor 4 (EPAC2) (AID 1645885); also: nearly all actives have a fitted effect of over 25% in size
# Conditions: EPAC2 Rap1B-BODIPY-GDP exchange fluorescence, biochemical; series mostly up to 114 µM; activity change, negative = inhibition: at the top concentration
# Sequence of UniProt Q8WZA2 (Q8WZA2 whole entry, looked up): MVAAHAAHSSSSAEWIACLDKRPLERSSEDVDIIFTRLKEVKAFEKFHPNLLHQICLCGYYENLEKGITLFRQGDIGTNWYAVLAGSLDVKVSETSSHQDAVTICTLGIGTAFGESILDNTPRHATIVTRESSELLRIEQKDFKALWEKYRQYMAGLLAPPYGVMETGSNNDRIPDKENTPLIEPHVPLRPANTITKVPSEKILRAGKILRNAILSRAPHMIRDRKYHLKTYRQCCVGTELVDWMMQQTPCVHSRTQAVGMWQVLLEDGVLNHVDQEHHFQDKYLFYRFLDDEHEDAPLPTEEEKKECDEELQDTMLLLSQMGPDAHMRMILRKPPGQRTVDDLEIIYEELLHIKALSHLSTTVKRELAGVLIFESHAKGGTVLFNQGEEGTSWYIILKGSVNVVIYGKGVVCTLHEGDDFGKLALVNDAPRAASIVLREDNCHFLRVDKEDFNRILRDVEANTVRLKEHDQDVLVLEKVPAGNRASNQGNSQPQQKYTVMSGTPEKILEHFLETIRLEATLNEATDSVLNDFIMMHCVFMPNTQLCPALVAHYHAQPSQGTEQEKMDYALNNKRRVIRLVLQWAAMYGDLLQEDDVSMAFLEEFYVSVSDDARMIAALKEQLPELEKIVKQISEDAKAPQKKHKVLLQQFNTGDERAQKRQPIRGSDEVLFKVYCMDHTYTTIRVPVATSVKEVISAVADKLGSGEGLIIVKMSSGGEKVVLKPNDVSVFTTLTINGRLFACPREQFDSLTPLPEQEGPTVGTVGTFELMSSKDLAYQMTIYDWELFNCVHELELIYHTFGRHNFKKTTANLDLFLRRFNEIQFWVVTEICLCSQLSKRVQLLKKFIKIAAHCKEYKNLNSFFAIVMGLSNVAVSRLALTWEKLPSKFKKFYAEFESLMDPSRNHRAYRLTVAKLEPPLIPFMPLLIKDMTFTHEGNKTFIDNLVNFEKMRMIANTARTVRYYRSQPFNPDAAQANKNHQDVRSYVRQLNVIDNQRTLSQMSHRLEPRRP
row,SMILES,Potency
1,O=C(O)c1cc([N+](=O)[O-])ccc1NCCCc1ccccc1,"inconclusive [inhibitor, partial curve]"
2,Cc1ccc(O)c(N=Nc2ccccc2)n1,"inconclusive [inhibitor, partial curve]"
3,CC(C)c1ccc2c(c1)c(SC(C)(C)C)c(CC(C)(C)C(=O)O)n2Cc1ccc(Cl)cc1,active: 19 µM and active: 27.8 µM
